Assays:
Assay type in all cases: cell-based
tobacco leaf discs = experiment: D-xylose and D-xylulose as carbohydrate sources, tobacco; details: xylose 0
Method: The standard leaf disc procedure for tobacco as described in Example 13 is performed, except that inoculation with Agrobacterium and the co-cultivation step are omitted. Benzyladenine (1 mg/l) is used as cytokinin and the carbohydrate content is as indicated below. The number of regenerated shoots from each leaf disc are registered after 21 days.

GUS+ tobacco leaf discs = experiment: Shoot regeneration with sitosteryl-β-D-glucuronide and tridemorph, GUS+; details: 121 mg/l, tridemorph 0.1 mM, 40 days
GUS- tobacco leaf discs = experiment: Shoot regeneration with sitosteryl-β-D-glucuronide and tridemorph, GUS-; details: 121 mg/l, tridemorph 0.1 mM, 40 days

Q: How did the “Number of regenerated shoots each leaf disc” value (“Number” below) (tobacco leaf discs; sucrose 0, xylulose 10 g/l) turn out when `O=C(CO)[C@@H](O)[C@H](O)CO` [D-xylulose] was run?
A: 4.1

Q: And the “Number” value (tobacco leaf discs; sucrose 10 g/l, xylulose 10 g/l)?
A: 11.7

Q: For `CC[C@H](CC[C@@H](C)[C@H]1CC[C@H]2[C@@H]3CC=C4C[C@@H](O[C@@H]5O[C@H](C(=O)O)[C@@H](O)[C@H](O)[C@H]5O)CC[C@]4(C)[C@H]3CC[C@]12C)C(C)C` [Sitosteryl-β-D-glucuronide, β-sitosteryl-β-D-glucuronidide], which “Regenerated shoots per leaf disc” value (GUS+ tobacco leaf discs; BA 0.1 mg/l) is on record?
A: 2.4

Q: What about the “Regenerated shoots per leaf disc” value (GUS+ tobacco leaf discs; BA3GN sodium salt 1.88 mg/l) of the same molecule?
A: 2.4

Q: What about the “Regenerated shoots per leaf disc” value (GUS- tobacco leaf discs; BA 0.1 mg/l) of the same molecule?
A: 1.9

Q: And the “Regenerated shoots per leaf disc” value (GUS- tobacco leaf discs; BA3GN sodium salt 1.88 mg/l)?
A: 0.1

Q: For `OC[C@H]1O[C@@](CO)(O[C@H]2O[C@H](CO)[C@@H](O)[C@H](O)[C@H]2O)[C@@H](O)[C@@H]1O` [sucrose], which “Number” value (tobacco leaf discs; sucrose 10 g/l, xylulose 0) is on record?
A: 2.3

From patent US5994629A, “Positive selection” (priority 1991, dated 1999)
